Nine molecules from PubChem BioAssay (NCATS) can be followed below.

Some of the results follow. Further columns of the screen follow, without active or inactive calls. The list favours compounds with an active or inconclusive main result. Words in brackets tell the shape of the fitted curve; partial curves, single points and poor fits give uncertain potencies.
Tags tell the direction and shape of the fitted curve.

The target in the experiment is Catechol O-methyltransferase (Homo sapiens) (UniProt P21964). Description: Confirmatory Screen for Target Class Profiling of Small Molecule Inhibitors of Methyltransferases (AID 1745852).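 Also: inhibitor potency for blocking SAH production.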 To be noted: MTase-Glo luminescence, SAH detection, recombinant enzyme; measured here: COMT inhibition potency.
Chain of UniProt P21964 (P21964 whole entry, looked up): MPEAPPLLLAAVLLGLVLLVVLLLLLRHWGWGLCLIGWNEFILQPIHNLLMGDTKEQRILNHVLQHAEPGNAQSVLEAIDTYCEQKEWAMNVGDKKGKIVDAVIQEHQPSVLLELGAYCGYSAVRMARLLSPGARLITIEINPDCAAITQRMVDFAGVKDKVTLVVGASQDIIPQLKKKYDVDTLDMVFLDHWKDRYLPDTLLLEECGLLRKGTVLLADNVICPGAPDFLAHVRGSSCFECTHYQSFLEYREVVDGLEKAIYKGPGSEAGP
Consider `C=C1C(OC2OC(CO)C(O)C(O)C2O)CC2C(C)(C)C(O)CCC2(C)C1CC/C(C)=C\COC(=O)CC(=O)O` (centres undefined), for which the IC50 was 5.69 µM [falling, partial curve].
Next, `CC1(C)CC[C@]2(C(=O)O[C@@H]3O[C@H](CO)[C@@H](O)[C@H](O)[C@H]3O)CC[C@]3(C)C(=CCC4[C@@]5(C)C[C@@H](O)[C@H](O)C(C)(C)C5CC[C@]43C)C2[C@@H]1O` (some centres undefined): 0.569 µM [falling, full curve].
As for `CC(=O)c1c(C)cccc1O[C@@H]1O[C@H](CO)[C@@H](O)[C@H](O)[C@H]1O`, the IC50 is 11.9 µM [falling, partial curve].
On to `CC(=O)OC/C(=C/C(=O)O)CC[C@@H]1C(CO)=CC[C@@H]2C(C)(C)CCC[C@@]12C`, for which the IC50 is 6.67 µM [falling, partial curve].
As for `C=C1C(=O)OC2CC3(C)C(CC12)C(C)=CC(O)C3OC(C)=O` (centres undefined), the IC50 is 9.42 µM [falling, partial curve].
Next, `CCC(C)C(=O)OC1CC(O)C23C4OCC5(C(O)CC2C1(C)C(O)O4)C3C(=O)C(O)C1(C)C(O)(c2ccoc2)CC2OC251` (centres undefined): 4.52 µM [falling, partial curve].
As to `C/C=C(/C)C(=O)O[C@H]1C=C(CO)C(=O)[C@H](OC(=O)/C(C)=C/CO)[C@H]1C(C)C`, the IC50 was 11.9 µM [falling, partial curve].
Next, `COC1C=C(C)C(O)(CO)C2(C)CCCC(C)(C)C12` (centres undefined): 17.1 µM [falling, partial curve]; `C=C[C@H]1[C@H](O[C@@H]2O[C@H](CO)[C@@H](O)[C@H](O)[C@H]2O)OC=C(C(=O)OC)[C@H]1CCOC(=O)c1cc(O)c(O)c(O)c1`: 0.0373 µM [falling, full curve].
